Reference: PubChem BioAssay AID504339 (National Center for Advancing Translational Sciences (NCATS), 2011)
Hit rate of the full screen: of about 390,000 compounds, about 17,000 (4.4%) were called active. Inconclusive results, whose numbers are uncertain, are shown with a selection of clear calls. Calls come from the whole dose curve; as a rule, active = well fitted inhibition curve with a large enough effect; inconclusive = small, poorly fitted or top-dose-only effect; inactive = no such curve, though single readings can be large or run the other way. Where the call is inconclusive, the potency comes from a doubtful curve fit. Some structures have more than one record in an assay (separate samples or runs), and their calls can disagree. Bridge positions count the residues as written; N and C are the ends. Square brackets hold non-standard residues; d marks the D form. Peptide text beside a SMILES is read from it. * marks the point of attachment. X1 = CCC(C)C(N)C1=NC(C(=O)*)CS1; dOrn = NCCC[C@@H](N)C(=O)O

target: Lysine-specific demethylase 4A (Homo sapiens) (UniProt O75164); test: qHTS Assay for Inhibitors of JMJD2A-Tudor Domain; details: AlphaScreen JMJD2A-Tudor / H3K4me3 peptide binding; activity change, negative = inhibition: at 114 µM (top of the series); note: nearly all actives have a fitted effect of over 50% in size
% is set by controls: 0 for no effect and ±100 for the full control effect; potency is the fitted concentration of half-maximal effect; tags give direction and shape of the fitted curve.

Sequence of UniProt O75164 (O75164 whole entry, looked up, the tested form may be a part): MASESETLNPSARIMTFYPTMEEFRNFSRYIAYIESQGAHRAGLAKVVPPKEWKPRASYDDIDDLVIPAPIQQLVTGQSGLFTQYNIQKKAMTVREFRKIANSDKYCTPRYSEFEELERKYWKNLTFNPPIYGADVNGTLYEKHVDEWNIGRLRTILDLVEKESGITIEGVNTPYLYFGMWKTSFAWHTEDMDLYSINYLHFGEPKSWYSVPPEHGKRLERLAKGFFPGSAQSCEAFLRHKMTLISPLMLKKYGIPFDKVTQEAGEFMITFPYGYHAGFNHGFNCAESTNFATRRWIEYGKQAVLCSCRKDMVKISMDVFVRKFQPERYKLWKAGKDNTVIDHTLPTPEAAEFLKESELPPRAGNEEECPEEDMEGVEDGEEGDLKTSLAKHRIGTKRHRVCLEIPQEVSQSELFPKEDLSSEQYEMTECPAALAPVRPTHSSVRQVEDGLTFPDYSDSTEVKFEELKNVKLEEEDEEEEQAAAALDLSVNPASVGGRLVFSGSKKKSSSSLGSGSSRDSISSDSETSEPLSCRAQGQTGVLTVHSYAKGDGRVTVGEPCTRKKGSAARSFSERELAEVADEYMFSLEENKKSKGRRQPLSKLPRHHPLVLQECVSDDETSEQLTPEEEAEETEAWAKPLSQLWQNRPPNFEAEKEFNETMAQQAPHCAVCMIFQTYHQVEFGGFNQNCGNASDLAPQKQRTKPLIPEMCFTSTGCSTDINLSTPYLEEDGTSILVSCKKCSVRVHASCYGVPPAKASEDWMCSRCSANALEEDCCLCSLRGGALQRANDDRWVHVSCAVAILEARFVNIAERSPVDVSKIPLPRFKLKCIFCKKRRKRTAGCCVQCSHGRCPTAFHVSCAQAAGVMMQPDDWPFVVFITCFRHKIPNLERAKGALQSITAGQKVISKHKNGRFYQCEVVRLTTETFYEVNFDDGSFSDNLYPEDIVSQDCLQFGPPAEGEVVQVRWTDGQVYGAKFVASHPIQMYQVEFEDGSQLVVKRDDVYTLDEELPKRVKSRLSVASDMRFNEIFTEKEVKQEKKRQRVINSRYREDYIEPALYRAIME

Row | SMILES | Potency | activity change, negative = inhibition
1 | CN(C)CCCNC(=O)c1cc(C(=O)c2c(Cl)cccc2Cl)c[nH]1 | inconclusive: 22.4 µM [inhibitor, partial curve, poor fit] | –
2 | COc1ccccc1CNC(=O)C12CC3CC(CC(C3)C1)C2 | active: 79.4 µM | –
3 | CC1=C/C(=N\OS(=O)(=O)c2ccccc2)C=CC1=O | active: 22.4 µM | –
4 | O=C(Cc1cccs1)Nc1ccc(N2CCOCC2)cc1 | inconclusive: 31.6 µM [inhibitor, full curve, poor fit] | –
5 | CCNc1nc(SC(C)C(=O)OC)nc(N(C)C)n1 (stereo not drawn) | – | inactive: -1.38%
6 | CC1CN(Cc2c(O)ccc3c2oc(=O)c2ccccc23)CC(C)O1 (stereo not drawn) | active: 10 µM | –
7 | CC1CCCN(C(=O)c2ccc3c(c2NCCO)C(=O)c2ccccc2C3=O)C1 (stereo not drawn) | active: 44.7 µM | –
8 | COc1ccc(CCNC(=O)c2ccc(CSCc3ccc(C)cc3)o2)cc1OC | inconclusive: 56.2 µM [inhibitor, partial curve] | –
9 | CC1=C(C(=O)Nc2ccccc2)C(c2ccco2)C(C#N)=C(SCC(=O)OC(C)C)N1 (stereo not drawn) | – | inactive: -9.63%
10 | O=C(O)CCCn1cc(NC(=O)COc2ccccc2F)cn1 | active: 79.4 µM | –
11 | C/C(=N\NC(=O)c1nnn(-c2nonc2N)c1CN(C)c1ccccc1)c1ccccc1O | active: 14.1 µM | –
12 | CCn1c(SCC(=O)Nc2cccnc2Cl)nnc1-c1ccccc1 | – | inactive: -8.84%
13 | O=C(Nc1ccc(OC(F)(F)F)cc1)C(NS(=O)(=O)c1cccc2nsnc12)c1ccccc1 (stereo not drawn) | inconclusive: 14.1 µM [inhibitor, full curve, poor fit] | –
14 | Oc1ccccc1C=NN=Cc1c(O)ccc2ccccc12 | – | inactive: -4.86%
15 | O=c1[nH]c2ccc(Cl)cc2c(-c2ccccc2)c1SC(=S)N1CCCCC1 | inconclusive: 35.5 µM [inhibitor, partial curve] | –
16 | Nc1n[nH]c(-c2ccc(F)cc2)n1 | inconclusive: 89.1 µM [inhibitor, partial curve] | –
17 | CCC(C)C(N)C1=NC(C(=O)N[C@@H](CC(C)C)C(=O)N[C@H](CCC(=O)[O-])C(=O)N[C@H](C(=O)N[C@H]2CCCCNC(=O)[C@H](CC(N)=O)NC(=O)[C@@H](CC(=O)[O-])NC(=O)[C@H](Cc3cnc[nH]3)NC(=O)[C@@H](Cc3ccccc3)NC(=O)[C@H]([C@@H](C)CC)NC(=O)[C@@H](CCCN)NC2=O)[C@@H](C)CC)CS1.[Zn+2] (stereo partly drawn) (X1-L[dE]IK[dOrn]I[dF]H[dD]N; lactam 4-C) | active: 2.82 µM | –
18 | COc1ccc(-c2nnc(SCC(=O)NCCc3ccccc3)nc2-c2ccc(OC)cc2)cc1 | – | inactive: -8.26%
19 | Cc1ccc(NC(=O)CSc2nn3c(=O)c(C)nnc3s2)cc1Cl | inconclusive: 89.1 µM [inhibitor, single point] | –
20 | Cc1ccc(Cn2cccc2/C=C2/C(=N)N3C=CSC3=NC2=O)cc1 | inconclusive: 100 µM [inhibitor, single point] | –
21 | CCCCOc1ccc(C(C)NC(=O)CCS(=O)(=O)Cc2ccc(Cl)cc2)cc1 (stereo not drawn) | – | inactive: -6.62%
22 | CCOC(=O)c1c(C)n(-c2ccc(C)cc2)c2ccc(OCC(O)CN3CCN(C)CC3)cc12 (stereo not drawn) | inconclusive: 35.5 µM [inhibitor, partial curve] | –
23 | Cn1c(CCN2CCN(c3ccccn3)CC2)nc2cc(NS(=O)(=O)c3ccc(Cl)cc3)ccc21 | inconclusive: 56.2 µM [inhibitor, partial curve] | –

Row | SMILES | Potency | activity change, negative = inhibition
24 | COc1cccc(NC(=S)N(Cc2ccco2)C(C)c2ccco2)c1 (stereo not drawn) | inconclusive: 79.4 µM [inhibitor, single point] | –
25 | COc1ccc(-c2c(C)nn3c(-c4ccccc4)cc(-c4ccccc4)nc23)cc1 | inconclusive: 44.7 µM [inhibitor, partial curve, poor fit] | –
26 | COc1ccc2nc3cc(Cl)ccc3c(Nc3cc(C(C)C)c(O)cc3C)c2c1 | inconclusive: 15.8 µM [inhibitor, partial curve] | –
27 | COCCN1CCn2c(nc3cc(NC(=O)NC4CCCCC4)ccc32)C1 | inconclusive: 79.4 µM [inhibitor, partial curve] | –
28 | CCCn1cc(SCC(=O)Nc2ccc3c(c2)OCO3)c2ccccc21 | inconclusive: 35.5 µM [inhibitor, partial curve] | –
29 | COc1cc(SC)ccc1C(=O)NCCCn1ccnc1 | – | inactive: -7.91%
30 | CCc1ccc2c(c1)c(=O)c(C(=O)c1ccccc1)cn2CC(=O)Nc1ccc(C)c(Cl)c1 | inconclusive: 1.58 µM [inhibitor, full curve, poor fit] | –
31 | COCCNC(=O)/C(C#N)=C/C=C/c1ccccc1 | – | inactive: -6.21%
32 | Cc1ccc2nc(-c3ccc(-c4cccc(Cl)c4)cc3)c(NCc3ccccc3)n2c1 | inconclusive: 44.7 µM [inhibitor, partial curve] | –
33 | CCCCNc1cc(N2CCN(C3CCCCC3)CC2)c2noc3c2c1C(=O)c1ccccc1-3 | inconclusive: 35.5 µM [inhibitor, partial curve, poor fit] | –
34 | CC1CCN(CC(=O)Nc2ccc(C(=O)N3CCCCC3)cc2)CC1 | active: 1 µM | –
35 | CC(C)C(=O)N(Cc1ccc2c(c1)OCO2)Cc1ccccn1 | active: 56.2 µM | –
36 | CN(C)CCCN(C(=O)c1ccc(S(=O)(=O)N2CCc3ccccc32)cc1)c1nc2ccc(Cl)cc2s1 | inconclusive: 25.1 µM [inhibitor, full curve] | –
37 | COc1ccc(OC)c(CN2CCN(C(=O)c3ccc(C)c(S(=O)(=O)Nc4ccccc4OC)c3)CC2)c1 | inconclusive: 56.2 µM [inhibitor, partial curve, poor fit] | –
38 | Cc1ccc(-n2ncc(C(=O)NCCCN3CCN(C)CC3)c2C2CCN(C(=O)OC(C)(C)C)CC2)cc1 | – | inactive: -1.29%
39 | Cc1cc(C)c(NC(=O)CN2C(=O)CCn3nc(-c4cccn4C)cc32)c(C)c1 | inconclusive: 56.2 µM [inhibitor, partial curve] | –
40 | CCCC(c1nnnn1Cc1ccco1)N1CCN(C2CCCC2)CC1 (stereo not drawn) | inconclusive: 79.4 µM [inhibitor, partial curve] | –
41 | Cc1nnsc1-c1nnc(SCC(=O)c2ccc(F)cc2)n1C1CC1 | – | inactive: -5.78%
42 | Cc1cc(C(C)(C)C)ccc1OCCCCN1CCCC1 | active: 7.08 µM | –
43 | Cc1cc(F)ccc1NS(=O)(=O)c1c(C(=O)N2CCOCC2)c(C)n(C)c1C | – | inactive: -13.5%
44 | Cc1cc(C)c2nc(N3C(=O)C(O)=C(C(=O)c4ccco4)C3c3ccc(O)cc3)sc2c1 (stereo not drawn) | inconclusive: 35.5 µM [inhibitor, partial curve] | –
45 | COC(=O)c1ccc(CSc2ccc3nnc(-c4cccc(F)c4)n3n2)o1 | active: 89.1 µM | –
46 | Cc1ccc(CNC(=O)C2CCCCN2S(=O)(=O)c2ccccc2)cc1 (stereo not drawn) | – | inactive: 11.3%

Row | SMILES | Potency | activity change, negative = inhibition
47 | Cc1ccc(-c2nc3nc(C)cc(N4CCN(c5cccc(C)c5)C(C)C4)n3n2)cc1 (stereo not drawn) | inconclusive: 70.8 µM [inhibitor, single point] | –
48 | COc1ccc(CN2C(=O)c3cccnc3C2Nc2cc(Cl)c(OC)cc2OC)cc1 (stereo not drawn) | active: 35.5 µM | –
49 | CCNC1=C(Cl)C(=O)c2ccccc2C1=O | active: 50.1 µM | –
50 | NC(=O)CCN1CCC(c2nc3ccccc3s2)CC1 | – | inactive: -16.3%
51 | Cc1cc(N2C(=O)C(O)=C(C(=O)c3cccs3)C2c2ccccc2)no1 (stereo not drawn) | inconclusive: 25.1 µM [inhibitor, partial curve] | –
52 | O=C1NN(c2cccc(Br)c2)C(=O)/C1=C/c1cccs1 | inconclusive: 50.1 µM [inhibitor, partial curve] | –
53 | O=C(Nc1ccc(Nc2ccccc2)cc1)C(Cl)(Cl)Cl | inconclusive: 56.2 µM [inhibitor, partial curve] | –
54 | COc1cccc2[nH]c(C(=O)NN)c(N)c12 | inconclusive: 44.7 µM [inhibitor, partial curve] | –
55 | O=C(/C(Br)=C/Nc1cc(Cl)ccc1Cl)C(F)(F)F | inconclusive: 70.8 µM [inhibitor, single point] | –
56 | COc1ccccc1NC(=S)NCc1ccco1 | – | inactive: -22.5%
57 | Cc1cc(C(=O)COC(=O)CC2Sc3ccccc3NC2=O)c(C)n1-c1cccc(C(F)(F)F)c1 (stereo not drawn) | inconclusive: 44.7 µM [inhibitor, partial curve] | –
58 | O=c1c(C(c2c(O)nc3n(c2=O)CCS3)c2cccc3ccccc23)c(O)nc2n1CCS2 | inconclusive: 79.4 µM [inhibitor, single point] | –
59 | COc1cccc(-n2nnnc2SCC(=O)Nc2ccc(NC(C)=O)cc2)c1 | inconclusive: 15.8 µM [inhibitor, partial curve, poor fit] | –
60 | COc1cc(NC(=O)C/C(C)=N/NC(=O)C(=O)NCCO)c(OC)cc1Cl | inconclusive: 89.1 µM [inhibitor, single point] | –
61 | COC(=O)C1=C(C)NC(C)=C([N+](=O)[O-])C1c1ccccc1C(F)(F)F (stereo not drawn) | inconclusive: 56.2 µM [inhibitor, partial curve] | –
62 | O=C(CSc1n[nH]c(-c2ccccn2)n1)Nc1ccccc1 | active: 3.98 µM | –
63 | COc1ccc(CCNC(=O)[C@H](C)N2C(=O)N3CCc4c([nH]c5ccccc45)[C@@]3(C)C2=O)cc1OC | inconclusive: 56.2 µM [inhibitor, partial curve] | –
64 | O=C(CNC(=O)C12CC3CC(CC(C3)C1)C2)N/N=C\c1ccccn1 | – | inactive: -10.5%
65 | NC1=NC(=O)C(=Cc2ccccc2)S1 | – | inactive: -14.6%
66 | CC1CCCCC1NCC(=O)NCc1ccc(F)cc1 (stereo not drawn) | active: 1.26 µM | –
67 | COc1ccc(OC)c(C(=O)NC(CC(N)=O)c2ccc(N3CCN(c4ccccc4)CC3)c([N+](=O)[O-])c2)c1 (stereo not drawn) | inconclusive: 17.8 µM [inhibitor, full curve, poor fit] | –
68 | O=C(Nc1nc(-c2ccccn2)cs1)c1ccc(Br)s1 | inconclusive: 50.1 µM [inhibitor, partial curve] | –
